The supplement of paper PMC8728848
This is one part of the list.

Tests used:
Experiment in all cases: glycan array binding signal (z-score within array); higher = stronger binding
Details in all cases: glycan notation: IUPAC condensed, linker removed
[1] = molecular target: GlcNAc(b1-4)GlcNAc(b1-4)GlcNAc(b1-4)GlcNAc(b1-4)GlcNAc
Outline: (§1)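 Columns mapping to the same glycan were averaged after glycan names were converted to IUPAC-condensed notation. The data come from 3228 arrays in the Consortium for Functional Glycomics database, limited to those with an available protein sequence. Binding is reported as a within-array Z-score averaged across arrays of one protein sequence and across linkers.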

[2] = molecular target: GlcNAc(b1-4)GlcNAc(b1-4)GlcNAc(b1-4)GlcNAc(b1-4)GlcNAc(b1-4)GlcNAc
Outline: as §1

[3] = molecular target: GlcNAc(b1-4)[GlcNAc(b1-6)]GalNAc
Outline: as §1

[4] = molecular target: GlcNAc(b1-6)Gal(b1-4)GlcNAc
Outline: as §1

GlcNAc(b1-6)GalNAc = molecular target: GlcNAc(b1-6)GalNAc
Outline: as §1

[5] = molecular target: GlcNAc6S(b1-3)Gal(b1-4)GlcNAc
Outline: as §1

Kdn(a2-3)Gal(b1-3)GalNAc = molecular target: Kdn(a2-3)Gal(b1-3)GalNAc
Outline: as §1

Kdn(a2-3)Gal(b1-3)GlcNAc = molecular target: Kdn(a2-3)Gal(b1-3)GlcNAc
Outline: as §1

Kdn(a2-3)Gal(b1-4)Glc = molecular target: Kdn(a2-3)Gal(b1-4)Glc
Outline: as §1

Kdn(a2-3)Gal(b1-4)GlcNAc = molecular target: Kdn(a2-3)Gal(b1-4)GlcNAc
Outline: as §1

[6] = molecular target: Kdn(a2-3)Gal(b1-4)[Fuc(a1-3)]GlcNAc
Outline: as §1

Kdn(a2-6)Gal(b1-4)GlcNAc = molecular target: Kdn(a2-6)Gal(b1-4)GlcNAc
Outline: as §1

[7] = molecular target: Man(a1-2)Man(a1-2)Man(a1-3)Man
Outline: as §1

[8] = molecular target: Man(a1-2)Man(a1-2)Man(a1-6)[Man(a1-3)]Man
Outline: as §1

Man(a1-2)Man(a1-3)Man = molecular target: Man(a1-2)Man(a1-3)Man
Outline: as §1

[9] = molecular target: Man(a1-2)Man(a1-3)[Man(a1-2)Man(a1-6)]Man
Outline: as §1

[10] = molecular target: Man(a1-2)Man(a1-3)[Man(a1-2)Man(a1-6)]Man(a1-6)[Man(a1-2)Man(a1-2)Man(a1-3)]Man
Outline: as §1

[11] = molecular target: Man(a1-2)Man(a1-3)[Man(a1-2)Man(a1-6)]Man(a1-6)[Man(a1-2)Man(a1-2)Man(a1-3)]Man(b1-4)GlcNAc(b1-4)GlcNAc
Outline: as §1

[12] = molecular target: Man(a1-2)Man(a1-3)[Man(a1-6)]Man(a1-6)[Man(a1-2)Man(a1-3)]Man(b1-4)GlcNAc(b1-4)GlcNAc
Outline: as §1

[13] = molecular target: Man(a1-2)Man(a1-6)[Man(a1-3)]Man(a1-6)[Man(a1-2)Man(a1-2)Man(a1-3)]Man
Outline: as §1

[14] = molecular target: Man(a1-2)Man(a1-6)[Man(a1-3)]Man(a1-6)[Man(a1-2)Man(a1-2)Man(a1-3)]Man(b1-4)GlcNAc(b1-4)GlcNAc
Outline: as §1

Man(a1-3)[Man(a1-6)]Man = molecular target: Man(a1-3)[Man(a1-6)]Man
Outline: as §1

[15] = molecular target: Man(a1-3)[Man(a1-6)]Man(a1-6)[Man(a1-2)Man(a1-3)]Man(b1-4)GlcNAc(b1-4)GlcNAc
Outline: as §1

[16] = molecular target: Man(a1-3)[Man(a1-6)]Man(a1-6)[Man(a1-3)]Man
Outline: as §1

[17] = molecular target: Man(a1-3)[Man(a1-6)]Man(a1-6)[Man(a1-3)]Man(b1-4)GlcNAc(b1-4)GlcNAc
Outline: as §1

[18] = molecular target: Man(a1-3)[Man(a1-6)]Man(b1-4)GlcNAc(b1-4)GlcNAc
Outline: as §1

[19] = molecular target: Man(a1-3)[Man(a1-6)]Man(b1-4)GlcNAc(b1-4)[Fuc(a1-6)]GlcNAc
Outline: as §1

Man(a1-6)Man = molecular target: Man(a1-6)Man
Outline: as §1

Man(b1-4)GlcNAc = molecular target: Man(b1-4)GlcNAc
Outline: as §1

MurNAc(b1-4)GlcNAc = molecular target: MurNAc(b1-4)GlcNAc
Outline: as §1

Neu5Ac(a2-3)Gal = molecular target: Neu5Ac(a2-3)Gal
Outline: as §1

[20] = molecular target: Neu5Ac(a2-3)Gal(b1-3)GalNAc
Outline: as §1

[21] = molecular target: Neu5Ac(a2-3)Gal(b1-3)GalNAc(b1-3)Gal(a1-4)Gal(b1-4)Glc
Outline: as §1

[22] = molecular target: Neu5Ac(a2-3)Gal(b1-3)GalNAc(b1-4)Gal(b1-4)Glc
Outline: as §1

[23] = molecular target: Neu5Ac(a2-3)Gal(b1-3)GalNAc(b1-4)[Neu5Ac(a2-3)]Gal(b1-4)Glc
Outline: as §1

[24] = molecular target: Neu5Ac(a2-3)Gal(b1-3)GalNAc(b1-4)[Neu5Ac(a2-8)Neu5Ac(a2-3)]Gal(b1-4)Glc
Outline: as §1

[25] = molecular target: Neu5Ac(a2-3)Gal(b1-3)GalNAc6S
Outline: as §1

[26] = molecular target: Neu5Ac(a2-3)Gal(b1-3)GlcNAc
Outline: as §1

[27] = molecular target: Neu5Ac(a2-3)Gal(b1-3)GlcNAc(b1-2)Man
Outline: as §1

[28] = molecular target: Neu5Ac(a2-3)Gal(b1-3)GlcNAc(b1-2)Man(a1-3)[GlcNAc(b1-4)][Neu5Ac(a2-3)Gal(b1-3)GlcNAc(b1-2)Man(a1-6)]Man(b1-4)GlcNAc(b1-4)GlcNAc
Outline: as §1

[29] = molecular target: Neu5Ac(a2-3)Gal(b1-3)GlcNAc(b1-2)Man(a1-3)[Neu5Ac(a2-3)Gal(b1-3)GlcNAc(b1-2)Man(a1-6)]Man(b1-4)GlcNAc(b1-4)GlcNAc
Outline: as §1

[30] = molecular target: Neu5Ac(a2-3)Gal(b1-3)GlcNAc(b1-2)[Neu5Ac(a2-3)Gal(b1-3)GlcNAc(b1-4)]Man(a1-6)[Neu5Ac(a2-3)Gal(b1-3)GlcNAc(b1-2)Man(a1-3)]Man(b1-4)GlcNAc(b1-4)GlcNAc
Outline: as §1

[31] = molecular target: Neu5Ac(a2-3)Gal(b1-3)GlcNAc(b1-3)Gal(b1-3)GlcNAc
Outline: as §1

[32] = molecular target: Neu5Ac(a2-3)Gal(b1-3)GlcNAc(b1-3)Gal(b1-4)GlcNAc
Outline: as §1

[33] = molecular target: Neu5Ac(a2-3)Gal(b1-3)GlcNAc(b1-3)GalNAc
Outline: as §1

B1: Mg1lysM (Mycosphaerella graminicola) (protein)
chain: QRNPITITPQFDCGATNSQQYVARSGDTLTKIAQEIYHDVVGVCDIARANNLADPNRIDAGTPYTIPINCQTYDRNSCL
[1]
  glycan array binding signal (z-score): 11.9
[2]
  glycan array binding signal (z-score): 7.47
[3]
  glycan array binding signal (z-score): -0.048
[4]
  glycan array binding signal (z-score): -0.073
GlcNAc(b1-6)GalNAc
  glycan array binding signal (z-score): -0.003
[5]
  glycan array binding signal (z-score): -0.081
Kdn(a2-3)Gal(b1-3)GalNAc
  glycan array binding signal (z-score): -0.057
Kdn(a2-3)Gal(b1-3)GlcNAc
  glycan array binding signal (z-score): -0.072
Kdn(a2-3)Gal(b1-4)Glc
  glycan array binding signal (z-score): -0.086
Kdn(a2-3)Gal(b1-4)GlcNAc
  glycan array binding signal (z-score): -0.058
[6]
  glycan array binding signal (z-score): -0.081
Kdn(a2-6)Gal(b1-4)GlcNAc
  glycan array binding signal (z-score): -0.085
[7]
  glycan array binding signal (z-score): -0.082
[8]
  glycan array binding signal (z-score): -0.051
Man(a1-2)Man(a1-3)Man
  glycan array binding signal (z-score): -0.046
[9]
  glycan array binding signal (z-score): -0.06
[10]
  glycan array binding signal (z-score): -0.068
[11]
  glycan array binding signal (z-score): -0.056
[12]
  glycan array binding signal (z-score): -0.085
[13]
  glycan array binding signal (z-score): -0.062
[14]
  glycan array binding signal (z-score): -0.078
Man(a1-3)[Man(a1-6)]Man
  glycan array binding signal (z-score): -0.059
[15]
  glycan array binding signal (z-score): -0.083
[16]
  glycan array binding signal (z-score): -0.076
[17]
  glycan array binding signal (z-score): -0.077
[18]
  glycan array binding signal (z-score): -0.076
[19]
  glycan array binding signal (z-score): -0.08
Man(a1-6)Man
  glycan array binding signal (z-score): -0.035
Man(b1-4)GlcNAc
  glycan array binding signal (z-score): -0.06
MurNAc(b1-4)GlcNAc
  glycan array binding signal (z-score): -0.059
Neu5Ac(a2-3)Gal
  glycan array binding signal (z-score): -0.083
[20]
  glycan array binding signal (z-score): -0.058
[21]
  glycan array binding signal (z-score): -0.054
[22]
  glycan array binding signal (z-score): -0.102
[23]
  glycan array binding signal (z-score): -0.086
[24]
  glycan array binding signal (z-score): -0.042
[25]
  glycan array binding signal (z-score): -0.073
[26]
  glycan array binding signal (z-score): -0.071
[27]
  glycan array binding signal (z-score): -0.056
[28]
  glycan array binding signal (z-score): -0.076
[29]
  glycan array binding signal (z-score): -0.047
[30]
  glycan array binding signal (z-score): 0.149
[31]
  glycan array binding signal (z-score): -0.081
[32]
  glycan array binding signal (z-score): -0.061
[33]
  glycan array binding signal (z-score): -0.069
